# Whole data set: some 33,000 sequences, median “E-score (-0.5 to 0.5)” near -0.021, cut for the highest 2% near 0.32. Some of the results follow.
# Target: T1, Zap1 (UniProt P47043)
# T1 sequence: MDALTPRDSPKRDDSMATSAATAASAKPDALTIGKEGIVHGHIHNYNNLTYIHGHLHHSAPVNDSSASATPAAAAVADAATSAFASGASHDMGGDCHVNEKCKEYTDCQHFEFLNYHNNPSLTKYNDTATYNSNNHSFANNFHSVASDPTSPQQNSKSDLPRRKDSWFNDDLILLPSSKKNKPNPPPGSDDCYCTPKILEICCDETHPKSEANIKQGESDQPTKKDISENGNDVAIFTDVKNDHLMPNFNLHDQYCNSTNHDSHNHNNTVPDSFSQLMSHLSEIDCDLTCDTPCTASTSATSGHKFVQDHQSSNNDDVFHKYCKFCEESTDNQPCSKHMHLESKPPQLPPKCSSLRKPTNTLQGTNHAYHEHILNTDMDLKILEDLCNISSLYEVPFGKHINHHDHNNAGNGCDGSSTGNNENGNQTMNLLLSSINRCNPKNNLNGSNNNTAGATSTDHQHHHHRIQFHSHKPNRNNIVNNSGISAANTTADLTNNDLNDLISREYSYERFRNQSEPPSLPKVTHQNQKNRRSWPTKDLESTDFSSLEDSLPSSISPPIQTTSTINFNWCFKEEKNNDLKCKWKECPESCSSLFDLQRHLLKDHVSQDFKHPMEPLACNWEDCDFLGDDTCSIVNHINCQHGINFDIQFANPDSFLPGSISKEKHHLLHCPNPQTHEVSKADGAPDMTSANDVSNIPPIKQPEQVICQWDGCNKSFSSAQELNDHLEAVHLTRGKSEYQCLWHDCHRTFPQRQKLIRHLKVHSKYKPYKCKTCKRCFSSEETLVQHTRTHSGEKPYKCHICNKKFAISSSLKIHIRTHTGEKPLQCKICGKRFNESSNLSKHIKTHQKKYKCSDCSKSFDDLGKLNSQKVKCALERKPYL
# Assay: PBM E-score (8-mer binding enrichment) (E-score (-0.5 to 0.5)); higher = stronger / more preferred TF binding; most listed sequences are background and not binding sites
# Details: protein concentration: 200 nM; construct: GST-full length
# Method in brief: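 Universal all-10-mer Agilent arrays, double-stranded by primer extension on fresh or once-stripped slides, were probed with about 100-200 nM GST-tagged yeast transcription factors made by PURExpress. Fluorescent anti-GST detected bound protein, and masliner normalised the scans. E-scores from the Universal PBM Analysis Suite were given to each ungapped eight-base word pooled with its reverse complement.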
row,Sequence,PBM E-score
1,GAGTAATA,0.182
2,AGACTCTC,-0.062
3,CCATTAAC,0.292
4,TCGTGGAA,0.132
5,AAGAAGCC,0.0348
6,CGAGATTA,0.0755
7,AGTGGGAT,0.00108
8,CCTTCCCA,0.0336
9,AAGACCCA,0.142
10,CTAATACA,-0.0935
11,GCACACGC,-0.0947
12,AAATAACA,0.0357
13,CCAGAAGC,-0.0679
14,TAATCTAA,0.17
15,GATACGGC,-0.222
16,GCCAAGCA,-0.273
17,ATAGCCCC,-0.319
18,CCATCAAA,0.0846
19,CAGATCAA,-0.0839
20,GTATCATA,0.237
21,CGGTGAAG,-0.171
22,ACGTCAGA,-0.185

row,Sequence,PBM E-score
1,CTGGACTC,-0.142
2,AAGCCTTC,-0.214
3,ACCTTCAA,0.281
4,ACGAGCAC,-0.0555
5,CAAGTCGC,-0.247
6,CCATCTCA,-0.0981
7,AGAAATTG,0.11
8,CTACTCTC,-0.228
9,GGCCTATA,0.0158
10,CCATCGCA,-0.11
11,AATTTTAG,0.0275
12,AGTGCGGC,-0.237
13,ATACGCTC,-0.107
14,CGTTGGTC,-0.0765
15,CCTTTCGC,0.0361
16,CACCGTAG,-0.168
17,ACTCCTAT,-0.0174
18,CGGGTACA,0.122
19,CGCCCGCG,-0.127
20,AACAACTA,0.0139
21,TCCAGCGA,-0.138
22,GCAACTAC,0.0642

row,Sequence,PBM E-score
1,CGAGGAGC,-0.26
2,CACGGGCC,-0.224
3,TAGAACAA,0.0748
4,GCTAGCCA,-0.334
5,CACGACTA,-0.0134
6,CTCTATGC,-0.0317
7,GTTACCGA,0.268
8,GTCCGAAC,-0.0294
9,AGGGGCAC,-0.204
10,CGGATTAA,-0.00574
11,CGCGTATA,-0.109
12,CCGTGGAC,-0.0606
13,CACAAACG,0.111
14,AGTGGACA,0.0274
15,AGTTCAGG,0.0101
16,CGGGATAA,0.0579
17,CACCTCCG,-0.0754
18,CACTAGAA,0.0315
19,CGAATTTC,0.0202
20,CCTTTGGC,-0.0594
21,ATCTAGCG,-0.183
22,CCACAAGA,0.0787

row,Sequence,PBM E-score
1,CACGACAC,-0.0603
2,CCGGCGGC,-0.102
3,AGACACAC,-0.169
4,ATAGCATG,-0.192
5,GGATAAAA,0.108
6,ATGTTGTC,-0.0552
7,CGAACCCC,0.0204
8,AGGTGCGC,-0.085
9,CCAACGAA,0.0692
10,CTGAACCC,0.282
11,AAGTAACC,0.393
12,GCGACAAC,0.178
13,GAATTCTA,0.122
14,GTACTCCA,-0.0554
15,GAAGTTCC,-0.258
16,TAGACCGA,0.019
17,CCTCATTC,0.0439
18,ATGCGTCA,-0.219
19,GCCTAATA,-0.127
20,ATCGTATG,0.00624
